# The full ranking holds about 33,000 sequences; the median of “E-score (dimensionless, -0.5 to 0.5)” is about -0.058, and the highest 2% start at about 0.35. This is one part of the list.
# System: MvaT
# Assay: PBM 8-mer E-score (mean of HK and ME arrays) (E-score (dimensionless, -0.5 to 0.5)); higher = stronger relative binding preference; most listed sequences are background and not binding sites
# Outline: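 Reported values are rank-based E-scores, taken as the mean of two universal arrays and parsed with a custom script. Each 8-mer score falls between -0.5 and 0.5. The arrays, ME and HK, were double-stranded 60-mers with a constant 25-mer primer region and a variable 35-mer region covering all 8-mers. They were probed, by an earlier protocol, with full-length P. aeruginosa MvaT carrying an N-terminal glutathione S-transferase fusion.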
row,Sequence,PBM 8-mer E-score
1,CCGTATTC,0.118
2,AGCTGACA,-0.2
3,AGCGGCCT,-0.12
4,AGTTGTAG,0.137
5,GCTGCGCA,-0.181
6,ACGCTCGA,-0.106
7,ACAAGGGA,-0.117
8,TGTGAACA,0.00407
9,AATTATGG,0.285
10,TGGTCAAA,0.00317
11,CCAGCCCC,-0.231
12,GTGTTGGA,-0.0408
13,CACCTTAA,-0.0188
14,CGGGTCAA,-0.218
15,CATCGTAC,-0.0572
16,GTCGACAC,-0.0976
17,TACGTAAA,0.178
18,ACATCCCA,-0.00783
19,CCGTTAGG,-0.212
20,AGGCCAAT,-0.0229
21,AGCTAACA,-0.075
22,CAATAGAC,0.0182
23,ATCCCTAC,-0.0788
24,GAGAGGGA,-0.253
25,AGGCGAAC,-0.0175

row,Sequence,PBM 8-mer E-score
1,GAGAAGCA,-0.153
2,CTAATAAA,0.349
3,AACTAAGG,0.235
4,CGACCCTC,-0.228
5,GGCTTTGA,-0.0706
6,AAGGCGTG,-0.156
7,GACGCCCA,-0.248
8,CCCGTAGA,-0.174
9,ACCACGGT,0.0026
10,ACAATCGC,-0.0204
11,AGGTCTAA,0.0157
12,ACATGCCC,-0.0526
13,AAAATACT,0.272
14,CAAGTCCG,-0.103
15,AAATATGT,0.348
16,CCCACCAG,-0.203
17,ATGAGTCA,0.00927
18,ATATTCAG,0.254
19,GCACCCCA,-0.183
20,ATGAATTG,0.099
21,GTCAGCGA,-0.0175
22,AATCAGGG,-0.058
23,ACGGGACG,-0.256
24,AGGACGAC,-0.19
25,CATACGCA,-0.0924

row,Sequence,PBM 8-mer E-score
1,CACGGCCG,-0.25
2,GATTTTGA,-0.0219
3,AATTTATG,0.273
4,TATATAAA,0.47
5,ACCTCACC,-0.0474
6,CATTCTCA,0.0311
7,ACTCATGA,-0.0138
8,GTTGATGA,0.0373
9,CCAATGGG,-0.204
10,AGATTACG,0.0614
11,TTTCCAAA,0.213
12,TATAATAA,0.477
13,AGACCTTA,-0.117
14,CAAACACA,0.134
15,AGGTCGCC,-0.219
16,AGAGTAGA,-0.0309
17,CGCGACGA,-0.182
18,CAAGCTAG,-0.0234
19,ACCGGTTC,-0.195
20,CATCTAGC,-0.0846
21,ATGAAGCG,-0.026
22,CACGTTCC,-0.11
23,AAACTTAT,0.381
24,AGGCAAGA,-0.05
25,TGGGTCAA,-0.073

row,Sequence,PBM 8-mer E-score
1,CTTTATTA,0.402
2,CGACGACG,-0.0581
3,CATCCGCA,-0.214
4,AGATCAGC,-0.183
5,CCATTACC,0.0366
6,CGAAAATA,0.199
7,GAGAGTTA,0.128
8,ATCTCTTC,0.0149
9,ACTCGCGC,-0.0914
10,CGCTGGTA,-0.0275
11,AACCACCT,-0.167
12,AAGCTTGG,-0.0821
13,ACGCCATG,-0.22
14,ACCCAAGT,-0.0943
15,AACTAGTC,0.0574
16,ATACTGGG,0.00507
17,AACGATCG,-0.162
18,AGGAGGAA,-0.174
19,CAGGAACC,-0.174
20,CTCTTCCC,-0.257
21,AGCGTGAC,-0.158
22,ATATCCAT,0.22
23,AATTGGTC,0.172
24,AGATCTAT,0.147
25,CACGTCAA,-0.104

row,Sequence,PBM 8-mer E-score
1,ATTTCCAC,0.19
2,GAAACTTC,0.264
3,ATCCGTCC,-0.175
4,CGGGTACC,-0.269
5,AGTGCTGA,-0.0354
6,ACGGCGGC,-0.104
7,CCCTTACC,-0.214
8,ACGAACCG,-0.179
9,AGCTCTTG,-0.156
10,ATTAAAGG,0.156
11,ACGCTAGG,-0.211
12,CTTTCGTA,-0.0421
13,GACGTACC,-0.151
14,AGCCTAAT,-0.0118
15,ATATATGA,0.439
16,AACAACGC,0.108
17,CGGTCCAG,-0.21
18,CACCCTTA,-0.023
19,ACGTCAAA,-0.037
20,GTATGATA,0.202
21,GCCAGGCA,-0.204
22,AGCATGTG,-0.075
23,AAGGCGGT,-0.127
24,AGGCTAGG,-0.203
25,TTGCACAA,0.0915

row,Sequence,PBM 8-mer E-score
1,CGATCATC,-0.154
2,TACGCGAA,0.109
3,CATGATGA,0.00291
4,GGATCCAA,-0.192
5,CCGCTAAA,0.0528
6,CCCAGCCC,-0.292
7,AAGTATCG,0.194
8,AATAGTTC,0.227
9,ACCGGTGC,-0.3
10,AATAACTC,0.228
11,GGAACGTA,-0.145
12,GCATTGCC,-0.0733
13,CGCGGAAG,-0.105
14,CCTGGCGA,-0.207
15,AGGGCCCC,-0.312
16,TGAGCGCA,-0.193
17,CGCCCAGA,-0.269
18,ACCGTTTG,-0.00262
19,AGGGGTCC,-0.292
20,TAGCTCAA,-0.134
21,AAAGTTGC,0.218
22,TACCGTCA,-0.0622
23,ATTGTATA,0.324
24,TGGCAACA,-0.122
25,CGGAGGAA,-0.189

row,Sequence,PBM 8-mer E-score
1,AGGTCTTG,-0.0961
2,AAGGGGGA,-0.115
3,CCTTAGGA,-0.319
4,TATTTCAA,0.292
5,CAACAGGC,-0.146
6,AATCCAGT,0.0746
7,ATTGCTTG,0.0419
8,GGTAAGGA,-0.186
9,CTCTCAAA,-0.0373
10,AAGCTGGT,-0.136
11,TGAAGCCA,-0.0665
12,ATAACAGC,0.232
13,CCACGTTC,-0.156
14,AAAACAAT,0.349
15,CGTCCACC,-0.147
16,ATCCTTCA,-0.134
17,GACTTCAC,-0.0427
18,CATTGGGC,-0.202
19,GGCTTAAA,0.204
20,GCGAGCGC,-0.116
21,GCACTCAC,-0.167
22,CAGCCGAG,-0.274
23,CCATTTCC,-0.111
24,AATTAAAT,0.452
25,CACGATAC,-0.0547

row,Sequence,PBM 8-mer E-score
1,GCGTTTTA,0.129
2,TCACGCCA,0.00753
3,GTCCAAGA,-0.0983
4,AATAATAA,0.478
5,TATAGGCA,0.169
6,TAGTTGAA,0.236
7,AGACTCCA,-0.0861
8,AAGTACCA,0.1
9,GCGAAGCC,-0.279
10,CCGAAAAG,0.0555
11,AGGGTCCC,-0.204
12,ATCCCTGA,-0.15
13,CAATATCC,0.127
14,CCGGCTCC,-0.384
15,AGGGCCAC,-0.213
16,AGTGCGGA,0.0614
17,CTGTCTCA,-0.0294
18,AGCTTTGG,-0.312
19,AAACAGAT,0.111
20,ACGTAATG,0.0923
21,GTTCGACA,-0.0253
22,AAAATCGT,0.126
23,AGATCCAT,-0.0762
24,CAGAGCGC,-0.189
25,GTGCCAAC,-0.164

row,Sequence,PBM 8-mer E-score
1,GGAGAACC,-0.276
2,AGGCGCGG,-0.243
3,TAAACTTA,0.352
4,CTGTTTCA,-0.122
5,ATGGGAGA,-0.123
6,CTAGATGC,-0.116
7,AGGATTCC,-0.209
8,GGCCGCCA,-0.127
9,CCATCTCC,-0.216
10,AGCTCTTA,0.0954
11,GACTGTGA,-0.0824
12,AGCCCATA,-0.0669
13,ATGTTATA,0.442
14,ATAGGCAA,0.0817
15,ACTCGCTC,-0.134
16,AGGAACCT,-0.139
17,AGTTTAAG,0.257
18,CTGAGACA,-0.147
19,TTAAGCAA,0.231

# — the supplement of paper PMC4466236
